# Test results: the supplement of paper PMC8728848
# The list shows a part of the results.
# B1: DrGal9 (Danio rerio) (protein)
# chain: MAFYQQPPYYNPRIPFSGPIQGGLQDGKSIIISGRVLPGANRFHVNLQCGSHSEANVALHFNPRYEDTDYVVNNSYLNRTWGSEERKYESPFAQGQTFTLQILVAQDKYKISTNGRHFMDYKHRIPFTQVDTVAVEGMVEVNSVAFQNPAGFIPPQAGYAPQYAVPPGCGFPAFPSAPNYTIPHKTVMNGGLHPGKNIVINGVVNPNAKSIIFNLCYRSGIAFHYNPRFDENVVVRNTNQMEKWGAEERFGGLPFHKGQPFQVTISCNPQHYNVFVNGKQEHTYKHRYTKLNDIDILEICGDLQLTSVQA
# Tests used:
# Assay in all cases: glycan array binding signal (z-score within array); higher = stronger binding
# Settings in all cases: glycan notation: IUPAC condensed, linker removed
# GlcNAc(b1-3)GalNAc = biological target: GlcNAc(b1-3)GalNAc
# Procedure, shortened: (§1)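 Glycan array data were curated from 3228 arrays in the Consortium for Functional Glycomics database and kept only where the protein sequence was available. Glycan names were converted to IUPAC-condensed notation, and columns mapping to the same glycan were averaged. The binding signal is a within-array Z-score, averaged across arrays of the same protein sequence at different concentrations or buffers and across linkers. Negative Z-scores can be read as non-binding.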
# GlcNAc(b1-3)Man = biological target: GlcNAc(b1-3)Man
# Procedure, shortened: as §1
# [1] = biological target: GlcNAc(b1-3)[GlcNAc(b1-4)][GlcNAc(b1-6)]GlcNAc
# Procedure, shortened: as §1
# [2] = biological target: GlcNAc(b1-3)[GlcNAc(b1-6)]Gal(b1-4)GlcNAc
# Procedure, shortened: as §1
# [3] = biological target: GlcNAc(b1-3)[GlcNAc(b1-6)]GalNAc
# Procedure, shortened: as §1
# [4] = biological target: GlcNAc(b1-4)Gal(b1-4)GlcNAc
# Procedure, shortened: as §1
# GlcNAc(b1-4)GlcNAc = biological target: GlcNAc(b1-4)GlcNAc
# Procedure, shortened: as §1
# [5] = biological target: GlcNAc(b1-4)GlcNAc(b1-4)GlcNAc
# Procedure, shortened: as §1
# [6] = biological target: GlcNAc(b1-4)GlcNAc(b1-4)GlcNAc(b1-4)GlcNAc(b1-4)GlcNAc
# Procedure, shortened: as §1
# [7] = biological target: GlcNAc(b1-4)GlcNAc(b1-4)GlcNAc(b1-4)GlcNAc(b1-4)GlcNAc(b1-4)GlcNAc
# Procedure, shortened: as §1
# [8] = biological target: GlcNAc(b1-4)[GlcNAc(b1-6)]GalNAc
# Procedure, shortened: as §1
# [9] = biological target: GlcNAc(b1-6)Gal(b1-4)GlcNAc
# Procedure, shortened: as §1
# GlcNAc(b1-6)GalNAc = biological target: GlcNAc(b1-6)GalNAc
# Procedure, shortened: as §1
# [10] = biological target: GlcNAc6S(b1-3)Gal(b1-4)GlcNAc
# Procedure, shortened: as §1
# Kdn(a2-3)Gal(b1-3)GalNAc = biological target: Kdn(a2-3)Gal(b1-3)GalNAc
# Procedure, shortened: as §1
# Kdn(a2-3)Gal(b1-3)GlcNAc = biological target: Kdn(a2-3)Gal(b1-3)GlcNAc
# Procedure, shortened: as §1
# Kdn(a2-3)Gal(b1-4)Glc = biological target: Kdn(a2-3)Gal(b1-4)Glc
# Procedure, shortened: as §1
# Kdn(a2-3)Gal(b1-4)GlcNAc = biological target: Kdn(a2-3)Gal(b1-4)GlcNAc
# Procedure, shortened: as §1
# [11] = biological target: Kdn(a2-3)Gal(b1-4)[Fuc(a1-3)]GlcNAc
# Procedure, shortened: as §1
# Kdn(a2-6)Gal(b1-4)GlcNAc = biological target: Kdn(a2-6)Gal(b1-4)GlcNAc
# Procedure, shortened: as §1
# [12] = biological target: Man(a1-2)Man(a1-2)Man(a1-3)Man
# Procedure, shortened: as §1
# [13] = biological target: Man(a1-2)Man(a1-2)Man(a1-6)[Man(a1-3)]Man
# Procedure, shortened: as §1
# Man(a1-2)Man(a1-3)Man = biological target: Man(a1-2)Man(a1-3)Man
# Procedure, shortened: as §1
# [14] = biological target: Man(a1-2)Man(a1-3)[Man(a1-2)Man(a1-6)]Man
# Procedure, shortened: as §1
# [15] = biological target: Man(a1-2)Man(a1-3)[Man(a1-2)Man(a1-6)]Man(a1-6)[Man(a1-2)Man(a1-2)Man(a1-3)]Man
# Procedure, shortened: as §1
# [16] = biological target: Man(a1-2)Man(a1-3)[Man(a1-2)Man(a1-6)]Man(a1-6)[Man(a1-2)Man(a1-2)Man(a1-3)]Man(b1-4)GlcNAc(b1-4)GlcNAc
# Procedure, shortened: as §1
# [17] = biological target: Man(a1-2)Man(a1-3)[Man(a1-6)]Man(a1-6)[Man(a1-2)Man(a1-3)]Man(b1-4)GlcNAc(b1-4)GlcNAc
# Procedure, shortened: as §1
# [18] = biological target: Man(a1-2)Man(a1-6)[Man(a1-3)]Man(a1-6)[Man(a1-2)Man(a1-2)Man(a1-3)]Man
# Procedure, shortened: as §1
# [19] = biological target: Man(a1-2)Man(a1-6)[Man(a1-3)]Man(a1-6)[Man(a1-2)Man(a1-2)Man(a1-3)]Man(b1-4)GlcNAc(b1-4)GlcNAc
# Procedure, shortened: as §1
# Man(a1-3)[Man(a1-6)]Man = biological target: Man(a1-3)[Man(a1-6)]Man
# Procedure, shortened: as §1
# [20] = biological target: Man(a1-3)[Man(a1-6)]Man(a1-6)[Man(a1-2)Man(a1-3)]Man(b1-4)GlcNAc(b1-4)GlcNAc
# Procedure, shortened: as §1
# [21] = biological target: Man(a1-3)[Man(a1-6)]Man(a1-6)[Man(a1-3)]Man
# Procedure, shortened: as §1
# [22] = biological target: Man(a1-3)[Man(a1-6)]Man(a1-6)[Man(a1-3)]Man(b1-4)GlcNAc(b1-4)GlcNAc
# Procedure, shortened: as §1
# [23] = biological target: Man(a1-3)[Man(a1-6)]Man(b1-4)GlcNAc(b1-4)GlcNAc
# Procedure, shortened: as §1
# [24] = biological target: Man(a1-3)[Man(a1-6)]Man(b1-4)GlcNAc(b1-4)[Fuc(a1-6)]GlcNAc
# Procedure, shortened: as §1
# Man(a1-6)Man = biological target: Man(a1-6)Man
# Procedure, shortened: as §1
# Man(b1-4)GlcNAc = biological target: Man(b1-4)GlcNAc
# Procedure, shortened: as §1
# MurNAc(b1-4)GlcNAc = biological target: MurNAc(b1-4)GlcNAc
# Procedure, shortened: as §1
binder,measurement,setting,value
B1,glycan array binding signal (z-score),GlcNAc(b1-3)GalNAc,-0.416
same,glycan array binding signal (z-score),GlcNAc(b1-3)Man,-0.36
same,glycan array binding signal (z-score),[1],-0.41
same,glycan array binding signal (z-score),[2],-0.399
same,glycan array binding signal (z-score),[3],-0.417
same,glycan array binding signal (z-score),[4],-0.388
same,glycan array binding signal (z-score),GlcNAc(b1-4)GlcNAc,-0.379
same,glycan array binding signal (z-score),[5],-0.387
same,glycan array binding signal (z-score),[6],-0.385
same,glycan array binding signal (z-score),[7],-0.427
same,glycan array binding signal (z-score),[8],-0.334
same,glycan array binding signal (z-score),[9],-0.366
same,glycan array binding signal (z-score),GlcNAc(b1-6)GalNAc,-0.382
same,glycan array binding signal (z-score),[10],-0.045
same,glycan array binding signal (z-score),Kdn(a2-3)Gal(b1-3)GalNAc,-0.386
same,glycan array binding signal (z-score),Kdn(a2-3)Gal(b1-3)GlcNAc,-0.132
same,glycan array binding signal (z-score),Kdn(a2-3)Gal(b1-4)Glc,-0.395
same,glycan array binding signal (z-score),Kdn(a2-3)Gal(b1-4)GlcNAc,-0.184
same,glycan array binding signal (z-score),[11],-0.383
same,glycan array binding signal (z-score),Kdn(a2-6)Gal(b1-4)GlcNAc,-0.393
same,glycan array binding signal (z-score),[12],-0.394
same,glycan array binding signal (z-score),[13],-0.361
same,glycan array binding signal (z-score),Man(a1-2)Man(a1-3)Man,-0.396
same,glycan array binding signal (z-score),[14],-0.411
same,glycan array binding signal (z-score),[15],-0.388
same,glycan array binding signal (z-score),[16],-0.404
same,glycan array binding signal (z-score),[17],-0.416
same,glycan array binding signal (z-score),[18],-0.422
same,glycan array binding signal (z-score),[19],-0.394
same,glycan array binding signal (z-score),Man(a1-3)[Man(a1-6)]Man,-0.349
same,glycan array binding signal (z-score),[20],-0.376
same,glycan array binding signal (z-score),[21],-0.334
same,glycan array binding signal (z-score),[22],-0.406
same,glycan array binding signal (z-score),[23],-0.411
same,glycan array binding signal (z-score),[24],-0.394
same,glycan array binding signal (z-score),Man(a1-6)Man,-0.392
same,glycan array binding signal (z-score),Man(b1-4)GlcNAc,-0.382
same,glycan array binding signal (z-score),MurNAc(b1-4)GlcNAc,-0.397
